Measured values from PubChem BioAssay AID1671188 (National Center for Advancing Translational Sciences (NCATS), 2021).
Out of some 100,000 compounds screened, about 250 (0.25%) were called active. The inconclusive results got no clear call from the source; some entries with a clear call stand among them for comparison. The call rests on the fitted dose curve; in most records, active means well fitted inhibition curve with a large enough effect; inconclusive means small, poorly fitted or top-dose-only effect; inactive means flat fitted curve, though single readings scatter. Potencies of inconclusive entries are left out as doubtful fits.

Each compound was assayed against Alanine aminotransferase 2 (Homo sapiens) (UniProt Q8TD30) (assay: Primary qHTS assay for inhibitors of Glutamate pyruvate transaminase 2 (GPT2)). Settings: Recombinant GPT2, coupled pyruvate oxidase/HRP Amplex Red fluorescence; activity change, negative = inhibition: at 57.7 µM (top of the series) unless noted; series mostly up to 57.7 µM.
UniProt Q8TD30, sequence (Q8TD30 whole entry, looked up): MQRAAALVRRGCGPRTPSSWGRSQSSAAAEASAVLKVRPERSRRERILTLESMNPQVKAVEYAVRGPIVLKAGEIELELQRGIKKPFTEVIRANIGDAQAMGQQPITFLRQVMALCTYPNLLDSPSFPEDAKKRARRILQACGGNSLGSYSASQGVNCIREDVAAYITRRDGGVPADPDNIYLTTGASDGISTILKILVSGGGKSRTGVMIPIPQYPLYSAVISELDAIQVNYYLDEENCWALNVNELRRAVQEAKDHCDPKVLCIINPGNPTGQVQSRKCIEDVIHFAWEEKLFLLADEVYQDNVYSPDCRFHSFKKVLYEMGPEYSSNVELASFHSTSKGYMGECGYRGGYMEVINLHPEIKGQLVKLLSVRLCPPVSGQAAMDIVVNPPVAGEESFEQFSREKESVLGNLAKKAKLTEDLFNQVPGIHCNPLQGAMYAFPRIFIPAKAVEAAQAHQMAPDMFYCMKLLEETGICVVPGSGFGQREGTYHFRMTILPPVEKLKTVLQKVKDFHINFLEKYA
Procedure, shortened: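 Inhibition is scored from Amplex Red fluorescence generated when pyruvate oxidase and HRP act on pyruvate released by GPT2. Reactions contain 10ng/uL enzyme, 250uM a-KG and 2mM L-alanine and run 30 min at room temperature.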
Further: nearly all actives have a fitted effect of over 60% in size.
On the % scale 0 is the no-effect control and ±100 the full control effect; potency means the concentration at half of the fitted maximal effect; tags describe the fitted curve by direction and shape.

Structure (SMILES)	Potency	activity change, negative = inhibition	outcome
CN1Cc2ccc(Nc3ccccc3)nc2C(C)(C(=O)NCCc2ccccn2)C1 (configuration not stated)	inconclusive [inhibitor, single point]		
Nc1nc2c(nc(Br)n2C2OC3COP(=O)(O)O[C@@H]3C2O)c(=O)[nH]1 (some centres not stated)	inconclusive [inhibitor, single point]		
CCc1cccc(C)c1NC(=O)CN1C(=O)NC(c2ccc(Cl)cc2)C2=C1COC2=O (configuration not stated)	inconclusive [inhibitor, single point]		
Cc1ccc(C(=O)N2CCC3(CC2)NC(=O)N(c2cccc(Cl)c2)N3)c(C)c1	inconclusive [inhibitor, single point]		
COc1ccc(N2CCN(C(=O)CN3C(=O)C(c4ccccc4)=NC3(C)C)CC2)cc1	inconclusive [inhibitor, full curve]		
O=C1NCCCCCCN(S(=O)(=O)c2ccc3c(c2)CCC3)[C@H]2CCC[C@@H]12		inactive: -2.73%	
COc1cccc(CN2CCC(Oc3ccccc3-c3nc(-c4ccncc4)no3)C2)c1 (configuration not stated)		inactive: 1.33%	
C=CC[C@@H]1C=C(C)C[C@H](C)C[C@H](OC)[C@H]2O[C@@](O)(C(=O)C(=O)N3CCCC[C@H]3C(=O)O[C@H](C(C)=C[C@@H]3CC[C@H](O)[C@H](OC)C3)[C@@H](C)[C@@H](O)CC1=O)[C@@H](C)C[C@@H]2OC		inactive: -44%	
Cc1cc(F)ccc1C(=O)N1C[C@@H](CN2CCCCC2)[C@@H](CO)C1	inconclusive [inhibitor, single point]		
COc1ccccc1-c1cnc(NCc2ccccc2)c2c1CCO2	inconclusive [inhibitor, single point]		
COc1ccc(C(=O)N2CCOC(CCCC(C)C)C2)cc1OC (configuration not stated)	inconclusive [inhibitor, single point]		
COCCN1C(=O)[C@@H]2C[C@@H](CN2Cc2ccc(C(F)(F)F)cc2)Oc2ccccc21	inconclusive [inhibitor, single point]		
COc1cc(N2CCC(C(N)=O)CC2)ccc1Nc1nc(N)c(Cl)c(Nc2ccccc2S(=O)(=O)C(C)C)n1	active: 1.37 µM		
O=C(C1CCCCC1)N1CCC2(CC1)NC(=O)N(c1cccc(F)c1)N2	inconclusive [inhibitor, partial curve, poor fit]		
Cc1ccc(O)cc1	inconclusive [inhibitor, partial curve, poor fit]		
O=C1NC2(CCN(Cc3ccccc3)CC2)Oc2ccccc21	inconclusive [inhibitor, single point]		
CC(C)NC(=O)C[C@@H]1C[C@H]2O[C@H](CNC3CCCC3)[C@@H](O)[C@H]2O1	inconclusive [inhibitor, single point]		
COC[C@@H]1[C@H](C(=O)N2CCN(Cc3ccccc3)CC2)CCC(=O)N1C	inconclusive [inhibitor, single point]		
Cn1cc(CN2C[C@H](C(=O)NCc3ccccc3)C[C@H]2c2cccc(C(F)(F)F)c2)cn1	inconclusive [inhibitor, single point]		
CC1Oc2ccc(NC(=O)c3c(F)cccc3F)cc2CN(C2CCCc3ccccc32)C1=O (configuration not stated)	inconclusive [inhibitor, full curve, poor fit]		
COc1ccccc1C(=O)N1CCC(C(=O)N2CCC(c3nc4ncccc4[nH]3)CC2)C1 (configuration not stated)			inactive

Structure (SMILES)	Potency	activity change, negative = inhibition	outcome
CC(C)(C)c1ccc(C(=O)N2CC[C@H]3NC(=O)N(Cc4ccccc4)C(=O)[C@H]32)cc1	inconclusive [inhibitor, single point]		
COCCN1Cc2ccc(NCC(C)C)nc2C(C)(C(=O)NCc2cccnc2)C1 (configuration not stated)	inconclusive [inhibitor, partial curve, poor fit]		
CN(C1CCc2ccccc21)[S+](=O)([O-])c1cccc(C(F)(F)F)c1 (configuration not stated)	inconclusive [inhibitor, full curve, poor fit]		
CC(C)CNC(=O)CC1Sc2ncccc2N(CC(C)C)C1=O (configuration not stated)	inconclusive [inhibitor, partial curve, poor fit]		
COc1ccc(OC)c(CNC(=O)[C@H]2CCC[C@H]2NC(=O)c2ccc(OC)nc2)c1	inconclusive [inhibitor, full curve, poor fit]		
O=C(CCn1nnc2ccccc21)N1CCC2(CC1)[C@H](O)C[C@@H]2OCCO	inconclusive [inhibitor, partial curve, poor fit]		
COc1ccc(-c2cc(N3CCCC(NC(=O)c4cccc(OC)c4OC)C3)n[nH]2)cc1 (configuration not stated)	inconclusive [inhibitor, partial curve, poor fit]		
CC(=O)Nc1ccc(C(=O)N2CCn3c(nnc3C3CCCN3)C2)cc1 (configuration not stated)		inactive: 0.749%	
COCCOC1CCOC2(CCN(C(=O)Nc3cccc(C)c3)CC2)C1 (configuration not stated)		inactive: -9.38%	
CN(Cc1cccc(C(F)(F)F)c1)Cc1ccccn1	inconclusive [inhibitor, single point]		
COc1ccc(-c2cc(N3CCCC(NC(=O)c4ccccc4F)C3)n[nH]2)cc1 (configuration not stated)	inconclusive [inhibitor, single point]		
COc1cccc(-c2cccc(C(=O)N3CCN(C(=O)NC4CCCC4)CC3)c2)c1		inactive: -1.32%	
Cc1ccccc1CN1Cc2nc(-c3c(C)noc3C)ccc2OCC1=O		inactive: -5.81% [at 88.5 µM]	
C=C(C)C(=O)OC1CC2(C)OC(=CC2=O)C(=C)CC2OC(=O)C(COC)C12 (configuration not stated)	inconclusive [inhibitor, single point]		
OCCC1CN(Cc2cccn2-c2nccs2)CCN1Cc1ccc(F)c(F)c1 (configuration not stated)	inconclusive [inhibitor, single point]		
COc1ccc(NC(=O)c2cc3c(N(C)Cc4ccccc4)nc(C)cn3n2)cc1	inconclusive [inhibitor, single point]		
COc1cccc(CN2C[C@@H](CO)[C@H](c3nc(C)no3)C2)c1OC	inconclusive [inhibitor, partial curve, poor fit]		
COC(=O)C1=CO[C@@H](O[C@@H]2O[C@H](CO)[C@@H](O)[C@H](O)[C@H]2O)[C@H]2[C@@H]1[C@H](O)C[C@]2(C)O	inconclusive [inhibitor, single point]		
O=C(NCCc1ccc(Cl)cc1)C1CCCN1Cc1ccc(-c2cncnc2)cc1 (configuration not stated)			inactive
CC1(COc2cccnc2)COc2ccc(C(=O)N3CC[S+](=O)([O-])CC3)cc2N1 (configuration not stated)		inactive: 0.698% [at 88.5 µM]	
COc1cc(NC(=O)C2CN(S(=O)(=O)C3CC3)CC23CCCCC3)cc(OC)c1 (configuration not stated)		inactive: -9.43%	

Structure (SMILES)	Potency	activity change, negative = inhibition	outcome
c1ccc([C@H]2CN3CCSC3=N2)cc1	inconclusive [inhibitor, single point]		
O=C1NC2(CCN(C(=O)Cc3ccccc3)CC2)Oc2ccccc21	inconclusive [inhibitor, single point]		
CC1=C[C@@H](CNC(=O)CCC(=O)O)[C@H](C(C)C)C[C@H]1CC(=O)N1CCN(c2ccccn2)CC1	inconclusive [inhibitor, single point]		
Cc1nc2scc(CC(=O)N3CCCC3)n2c(=O)c1-c1cc(C)n(-c2cccc(F)c2)n1	inconclusive [inhibitor, full curve, poor fit]		
COc1cccc(C(=O)N(C)Cc2ccc(F)cc2)c1		inactive: -7.75% [at 88.5 µM]	
CC(=O)N1CCC(Oc2ccc(Cl)cc2C(=O)NCCOc2cccnc2)CC1			inactive
CC(C)/C=C1/NC(=O)C(C(C)C)n2c1nc1c(O)cccc1c2=O (configuration not stated)	inconclusive [inhibitor, partial curve, poor fit]		
O=C1NC(=NC2CCCC2)C2(CCCN(Cc3cccnc3)C2)N1c1cc(F)cc(F)c1 (configuration not stated)	inconclusive [inhibitor, single point]		
CC(C)c1noc(-c2cn(C3CCN(C(=O)c4ccc(F)cc4)C3)nn2)n1 (configuration not stated)			inactive
O=C(NCC1CCCN(C(=O)c2cc(=O)[nH]c(=O)[nH]2)C1)c1cccs1 (configuration not stated)	inconclusive [inhibitor, partial curve, poor fit]		
CCOc1ccccc1C(=O)NC1CCN(c2cc(-c3cccs3)[nH]n2)C1 (configuration not stated)	inconclusive [inhibitor, partial curve]		
O=C(c1cccc(Br)c1)N1CCN(c2cc(-c3cccs3)[nH]n2)CC1			inactive
C[C@]1(CO)[C@H]2Cc3sc(NC(=O)c4ccc(F)cc4)nc3[C@@H](CC(=O)NC3CCCC3)[C@]2(C)CC[C@H]1O	inconclusive [inhibitor, partial curve]		
Cc1ccc2c(n1)N(C)[C@H](CO)CCN(Cc1cnc3ccccc3c1)C2		inactive: 3.85% [at 88.5 µM]	
CCCC(=O)N1Cc2ccccc2CC2(CCCN(Cc3ccccc3)C2)C1 (configuration not stated)		inactive: -26%	
O=C(c1nc2sccn2c1Br)N1CCN(c2ncccn2)CC1	inconclusive [inhibitor, full curve, poor fit]		
COc1ccccc1NC(=O)Nc1ccnn1C1CCN(C(=O)CCN)CC1	inconclusive [inhibitor, partial curve]		
O=C([C@@H]1C[C@H](Oc2ccccc2)CN1C(=O)CCCc1ccccc1)N1CCCC1	inconclusive [inhibitor, single point]		
Cc1noc(C)c1-c1cc2cc(CN(C)C)oc2c(NCCc2ccccc2)n1	inconclusive [inhibitor, partial curve, poor fit]		
CCCN1CCN(C(=O)c2c(OCC3CC3)cc(=O)n3c2CCOCC3)CC1		inactive: 0.559%	
